This passage reports binding signal results from publication PMC12820563, “FoxP3 forms a head-to-head dimer in vivo and stabilizes its multimerization on adjacent microsatellites”.

Some of the results follow.

The target of the experiment is T1, MBP-FoxP1dN (Mus musculus, UniProt P58462 326-579).
T1 sequence: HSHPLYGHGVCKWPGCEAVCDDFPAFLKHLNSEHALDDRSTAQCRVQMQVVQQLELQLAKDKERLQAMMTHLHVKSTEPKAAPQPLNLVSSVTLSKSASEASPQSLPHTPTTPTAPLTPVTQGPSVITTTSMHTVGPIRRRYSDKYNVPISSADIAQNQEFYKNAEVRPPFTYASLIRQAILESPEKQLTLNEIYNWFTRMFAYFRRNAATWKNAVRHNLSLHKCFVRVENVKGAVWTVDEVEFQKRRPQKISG
Description: PD-seq (MBP pull-down with sequencing); 20 mM Tris-HCl pH 7.5, 100 mM NaCl, 1.5 mM MgCl2, 0.4 uM protein, 0.1 uM dsDNA library, 30 min, room temperature, amylose pull-down; high values mean tight binding. Conditions: protein: recombinant; tags: His6-MBP; chain copies: 2; dsDNA, one strand shown. The method in brief: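 Protein and DNA were mixed at 0.4 µM and 0.1 µM and held for 30 min at room temperature in Tris pH 7.5 buffer with NaCl and MgCl2; the protein was a His6-MBP-tagged, N-terminally truncated mouse FoxP3 or FoxP1 fragment from E. coli, and the DNA a Klenow-filled double-stranded degenerate library. Amylose resin captured the complexes, which were washed three times. Binding is read as reads-per-million enrichment of pull-down versus input after Illumina sequencing, with replicates pooled.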
As for “GATGATTGTTCTCCCAGCTGATGAATTCAATCCTTCGAGTAAACAAATTTTCCTAATCTTTCTGTTCAAGCGCCATCTAC”, the binding signal was 0.908 RPM ratio (pull-down/input). In the case of “GATGATTGTTCTCCCAGCTGATGAATTATCCACATCGAGTAAACAAATTTTCCTAATCTTTCTGTTCAAGCGCCATCTAC” it was 1.05 RPM ratio (pull-down/input). The figure for “GATGATTGTTCTCCCAGCTGATGAATTGCCCTAGTCGAGTAAACAAATTTTCCTAATCTTTCTGTTCAAGCGCCATCTAC” is 0.836 RPM ratio (pull-down/input); for “GATGATTGTTCTCCCAGCTGATGAATTTTGAGCCTCGAGTAAACAAATTTTCCTAATCTTTCTGTTCAAGCGCCATCTAC” it is 0.819 RPM ratio (pull-down/input); for “GATGATTGTTCTCCCAGCTGATGAATTGCAATATTCGAGTAAACAAATTTTCCTAATCTTTCTGTTCAAGCGCCATCTAC” it is 1.56 RPM ratio (pull-down/input).

For “GATGATTGTTCTCCCAGCTGATGAATTGATAGCCTCGAGTAAACAAATTTTCCTAATCTTTCTGTTCAAGCGCCATCTAC”, the binding signal is 0.916 RPM ratio (pull-down/input). The figure for “GATGATTGTTCTCCCAGCTGATGAATTAGCACAATCGAGTAAACAAATTTTCCTAATCTTTCTGTTCAAGCGCCATCTAC” is 1.33 RPM ratio (pull-down/input). In the case of “GATGATTGTTCTCCCAGCTGATGAATTCTTGTCCTCGAGTAAACAAATTTTCCTAATCTTTCTGTTCAAGCGCCATCTAC” it was 0.882 RPM ratio (pull-down/input). In the case of “GATGATTGTTCTCCCAGCTGATGAATTTCTTAACTCGAGTAAACAAATTTTCCTAATCTTTCTGTTCAAGCGCCATCTAC”, the binding signal is 0.949 RPM ratio (pull-down/input). The figure for “GATGATTGTTCTCCCAGCTGATGAATTCGCCGGCTCGAGTAAACAAATTTTCCTAATCTTTCTGTTCAAGCGCCATCTAC” is 0.748 RPM ratio (pull-down/input); for “GATGATTGTTCTCCCAGCTGATGAATTGGCTGCATCGAGTAAACAAATTTTCCTAATCTTTCTGTTCAAGCGCCATCTAC” it is 1.07 RPM ratio (pull-down/input); for “GATGATTGTTCTCCCAGCTGATGAATTACTCTCATCGAGTAAACAAATTTTCCTAATCTTTCTGTTCAAGCGCCATCTAC” it is 1.03 RPM ratio (pull-down/input).

Regarding “GATGATTGTTCTCCCAGCTGATGAATTCTCATTGTCGAGTAAACAAATTTTCCTAATCTTTCTGTTCAAGCGCCATCTAC”, the binding signal is 1.01 RPM ratio (pull-down/input).

Consider “GATGATTGTTCTCCCAGCTGATGAATTTGAAACTTCGAGTAAACAAATTTTCCTAATCTTTCTGTTCAAGCGCCATCTAC”, for which the binding signal is 0.864 RPM ratio (pull-down/input). “GATGATTGTTCTCCCAGCTGATGAATTCATTGACTCGAGTAAACAAATTTTCCTAATCTTTCTGTTCAAGCGCCATCTAC”: the binding signal is 0.932 RPM ratio (pull-down/input).

For the sequence “GATGATTGTTCTCCCAGCTGATGAATTTTCTCTCTCGAGTAAACAAATTTTCCTAATCTTTCTGTTCAAGCGCCATCTAC”, the binding signal is 0.904 RPM ratio (pull-down/input). In the case of “GATGATTGTTCTCCCAGCTGATGAATTCAGAATCTCGAGTAAACAAATTTTCCTAATCTTTCTGTTCAAGCGCCATCTAC” it was 0.824 RPM ratio (pull-down/input). The figure for “GATGATTGTTCTCCCAGCTGATGAATTTGGGCGTTCGAGTAAACAAATTTTCCTAATCTTTCTGTTCAAGCGCCATCTAC” is 0.922 RPM ratio (pull-down/input); for “GATGATTGTTCTCCCAGCTGATGAATTGCCACAGTCGAGTAAACAAATTTTCCTAATCTTTCTGTTCAAGCGCCATCTAC” it is 0.983 RPM ratio (pull-down/input).

Regarding “GATGATTGTTCTCCCAGCTGATGAATTTACTTTATCGAGTAAACAAATTTTCCTAATCTTTCTGTTCAAGCGCCATCTAC”, the binding signal was 1.46 RPM ratio (pull-down/input). As to “GATGATTGTTCTCCCAGCTGATGAATTTATTTTCTCGAGTAAACAAATTTTCCTAATCTTTCTGTTCAAGCGCCATCTAC”, the binding signal was 1.77 RPM ratio (pull-down/input).

Regarding “GATGATTGTTCTCCCAGCTGATGAATTCTGAGATTCGAGTAAACAAATTTTCCTAATCTTTCTGTTCAAGCGCCATCTAC”, the binding signal was 0.879 RPM ratio (pull-down/input).

As to “GATGATTGTTCTCCCAGCTGATGAATTCAACTCATCGAGTAAACAAATTTTCCTAATCTTTCTGTTCAAGCGCCATCTAC”, the binding signal was 0.88 RPM ratio (pull-down/input).

For “GATGATTGTTCTCCCAGCTGATGAATTCTCCGGTTCGAGTAAACAAATTTTCCTAATCTTTCTGTTCAAGCGCCATCTAC”, the binding signal was 0.8 RPM ratio (pull-down/input). For the sequence “GATGATTGTTCTCCCAGCTGATGAATTGTAGACGTCGAGTAAACAAATTTTCCTAATCTTTCTGTTCAAGCGCCATCTAC”, the binding signal is 0.93 RPM ratio (pull-down/input). With “GATGATTGTTCTCCCAGCTGATGAATTTACCTCATCGAGTAAACAAATTTTCCTAATCTTTCTGTTCAAGCGCCATCTAC”, the binding signal was 1.18 RPM ratio (pull-down/input). Turning to “GATGATTGTTCTCCCAGCTGATGAATTCCACTGATCGAGTAAACAAATTTTCCTAATCTTTCTGTTCAAGCGCCATCTAC”, the binding signal was 0.809 RPM ratio (pull-down/input). The figure for “GATGATTGTTCTCCCAGCTGATGAATTGAGCTCATCGAGTAAACAAATTTTCCTAATCTTTCTGTTCAAGCGCCATCTAC” is 0.874 RPM ratio (pull-down/input); for “GATGATTGTTCTCCCAGCTGATGAATTTTAGACCTCGAGTAAACAAATTTTCCTAATCTTTCTGTTCAAGCGCCATCTAC” it is 0.776 RPM ratio (pull-down/input). On to “GATGATTGTTCTCCCAGCTGATGAATTTTTCTTTTCGAGTAAACAAATTTTCCTAATCTTTCTGTTCAAGCGCCATCTAC”, for which the binding signal is 1.04 RPM ratio (pull-down/input). The figure for “GATGATTGTTCTCCCAGCTGATGAATTTTAAAATTCGAGTAAACAAATTTTCCTAATCTTTCTGTTCAAGCGCCATCTAC” is 0.885 RPM ratio (pull-down/input).
